Paper PMC3988464 (Journal of immunology (Baltimore, Md. : 1950), 2014)

Columns and labels:
[1] = target: Full-length, wild type recombinant human TSG-6 (human, UniProt P98066); experiment: SPR
[2] = target: Isolated Link module of human TSG-6 (Link_TSG6) (human, UniProt P98066 part only); experiment: SPR

Kd [1]: 581 nM
koff [1]: 0.0018 s⁻¹
kon [1]: 3100 M⁻¹ s⁻¹
Kd [2]: 203 nM
koff [2]: 0.0017 s⁻¹
kon [2]: 8400 M⁻¹ s⁻¹
B1: CXCL8_S (R68A) mutant (ligand)
chain: not shown
modifications: 72-residue mature form by convention (mature numbering +27 = precursor); monomer/dimer equilibrium
